The record followed here is US11266710B2, “Angio-3 for treatment of retinal angiogenic diseases” (SINGAPORE HEALTH SERVICES PTE LTD, priority 2017, dated 2022).

This series deals with NHP laser induced choroidal neovascularization model. The following applies: monkeys; for tolerability / intraocular inflammation: single IVT dose 2 mg in 50 μl. The procedure: This Pilot efficacy study was conducted on NHP laser induced choroidal neovascularization (“CNV”) model. Four monkeys were used for this pilot study and each animal was undergone eye examination procedures. Animals were sedated with ketamine intramuscularly (10-20 mg/kg) and Medetomidine (0.02 mg/kg; IM). Topical anaesthesia (1-2 drops of 1% xylocaine) was applied to reduce the discomfort of the eyes. Pupils of non-human primates were dilated with 2.5% phenylephrine hydrochloride and 1% tropicamide drops for the ocular imaging procedures.
Laser photocoagulation was performed on both eyes of the animals to create a model for CNV as previously described (Lai C M et al., 2005). Briefly, nine laser burns was delivered around the macula of each eye in the manner of a grid with a protocol of 500-800 mW power intensity, 50-micron spot size, and 0.1-s duration. The distance from each laser spot to the central fovea was maintained at 0.5 to 1 disc diameter size. Care was taken to avoid damaging the fovea.
After the animal being anesthetized, the eyes were locally anesthetized by putting a drop of xylocaine in the conjunctival sac. A 5% povidone iodine solution was placed in the conjunctival sac. A self-retaining eyelid speculum was placed in the eye. Caliper was used to measure and mark a location at 2 mm behind the limbus. Forceps was also be used to stabilize the eye and the intravitreal injection was performed using a 30-gauge needle. The tested compounds (2 mg in 50 μl) were administered single IVT injection into both eyes on day 15 (14 days after laser injury). Daily cage-side observations were performed on all animals to monitor for clinical signs of poor health, including any ocular abnormalities.
Fundus photography was carried out on both eyes at pre-laser and day 14 post-laser and day 29 post laser (2 weeks after treatment). For photography the pupils were dilated as mentioned above and imaged with a fundus camera (TopCon Corp., Tokyo, Japan). The fundus photographs were used to detect any changes in the retina such as inflammation and pigmentation.
FFA was performed on both eyes by intravenous injection of 10% sodium fluorescein dye (0. ml/kg body wt). The fundus images were taken between 10 s and 15 min after dye injection. FFA images were assessed and graded according to standardized system: • Grade 1—No hyperfluorescence—No leak • Grade 2—Hyperfluorescence—No leak • Grade 3—Hyperfluorescence—Late leak • Grade 4—Bright Hyperfluorescence with Late Leak Beyond Spot Optical Coherence Tomography (OCT):
OCT was carried out on both eyes at pre-laser and day 14 post-laser and day 29 post laser (2 weeks after treatment).
Animals were sacrificed on the proposed day (day 30) and the upper body was perfused through the aorta (descending clamped) with half-strength Karnovsky fixative. The eyes were removed, postfixes for 2 to 3 days in half-strength Karnovsky fixative, and then stored in formalin until processed. Strips of tissue containing 1 or 2 lesion sites were embedded in plastic. Sections 2 μm thick were taken at 30-μm steps through the middle of each lesion. […] This section was then evaluated by an observer masked to the treatment condition.
A tissue proliferation score was calculated for each lesion based on 3 criteria: the size of the spindle cell proliferative lesion, the extent of new blood vessel proliferation in the subretinal space, and the elevation of the retina above the choriocapillaris. […]

Where two headings read alike, the source gives them in different places. Where no end group is shown, it is not given here.

With “Eylea: Eylea (anti-VEGF), positive control; clinical compound [reference compound]”, the “tolerability / intraocular inflammation” value is reported as “well tolerated”. Moreover, the “lesion / laser spot area, thickness and volume” value (post treatment vs pre-treatment) is on record as “significantly reduced after treatment as compared to pre-treatment”.

Regarding “TPHTHNRTPE [Angio-3, Thr Pro His Thr His Asn Arg Thr Pro Glu]”, the “tolerability / intraocular inflammation” value is recorded as “well tolerated”. In addition, the “tolerability / intraocular inflammation” value (listed as SIPRAD-0276) was “well tolerated via IVT and no signs of inflammation found”.

Consider ranibizumab [Lucentis], for which the “tolerability / intraocular inflammation” value is listed as “well tolerated”.
